The text below walks through data of publication PMC7181131, “N-Pyrazinoyl Substituted Amino Acids as Potential Antimycobacterial Agents—the Synthesis and Biological Evaluation of Enantiomers” (Molecules, 2020).

Molecules are shown by their SMILES. Where two headings read alike, the source gives them in different places.

Holding throughout (assay): microbe, parasite or virus in culture
For experiment [1], the system named is Enterococcus faecalis CCM 4224 (ATCC 29212).
Experiment [2] deals with Escherichia coli CCM 3954 (ATCC 25922).
The subject of experiment [3] is Acinetobacter baumannii DSM 30007, ATCC 19606.
Experiment [4] relates to Pseudomonas aeruginosa CCM 3955 (ATCC 27853).
Where [5] appears, read: 24 h, read-out: MIC, visual detection.

On to `CNC(C)C1CCC(N)C(OC2C(N)CC(N)C(OC3OCC(C)(O)C(NC)C3O)C2O)O1` (stereo not drawn) [gentamicin, reference compound], for which the MIC was > 8 µg/mL in experiment [1] (setting [5]); > 8 µg/mL in experiment [1] (ATCC29212|CCM4224, 24 h, read-out: MIC, spectrophotometric detection); 1 µg/mL in experiment [2] (setting [5]); 1 µg/mL in experiment [2] (ATCC25922|CCM3954, 24 h, read-out: MIC, spectrophotometric detection); 8 µg/mL in experiment [3] (ATCC19606|DSM30007, 24 h, read-out: MIC, spectrophotometric detection); 8 µg/mL in experiment [3] (ATCC19606|DSM30007, 24 h, read-out: MIC, visual detection). Moreover, the MIC was 0.5 µg/mL in experiment [4] (setting [5]) and 0.5 µg/mL in experiment [4] (ATCC27853|CCM3955, 24 h, read-out: MIC, spectrophotometric detection).

Consider `COC(=O)[C@H](CCSC)NC(=O)c1cnccn1` [PC-L-Met-Me, methyl (pyrazine-2-carbonyl)-L-methioninate], for which the MIC in experiment [1] (24 h, read-out: MIC EF) was > 500 µM; in experiment [2] (24 h, read-out: MIC EC), > 500 µM; in experiment [3] (24 h, read-out: MIC ACI), > 500 µM; in experiment [4] (24 h, read-out: MIC PA) it was > 500 µM.

For `COC(=O)[C@H](NC(=O)c1cnccn1)[C@H](C)O` [PC-D-Thr-Me, methyl (pyrazine-2-carbonyl)-D-threoninate], the MIC is > 500 µM in experiment [1] (24 h, read-out: MIC EF); > 500 µM in experiment [2] (24 h, read-out: MIC EC); > 500 µM in experiment [3] (24 h, read-out: MIC ACI); > 500 µM in experiment [4] (24 h, read-out: MIC PA).

For the compound `COC(=O)[C@H](C)NC(=O)c1cnccn1` (racemic) [PC-DL-Ala-Me, methyl (pyrazine-2-carbonyl)alaninate], the MIC is > 500 µM in experiment [1] (24 h, read-out: MIC EF); > 500 µM in experiment [2] (24 h, read-out: MIC EC); > 500 µM in experiment [3] (24 h, read-out: MIC ACI); > 500 µM in experiment [4] (24 h, read-out: MIC PA).

As to `COC(=O)C(NC(=O)c1cnccn1)c1ccccc1` [PC-D/L-Pgl-Me, methyl 2-phenyL-2-(pyrazine-2-carboxamido)acetate], the MIC in experiment [1] (24 h, read-out: MIC EF) was > 500 µM; in experiment [2] (24 h, read-out: MIC EC), > 500 µM; in experiment [3] (24 h, read-out: MIC ACI) it was > 500 µM; in experiment [4] (24 h, read-out: MIC PA), > 500 µM.
